Reference: paper PMC10668032
The other results are listed elsewhere or left out. At the low end of the ranking, values are background and their order means little.

biological target: SIX1-Q177R homeodomain (UniProt Q15475); experiment: universal protein binding microarray; settings: Universal all-10-mer PBM (8x60K, AMADID 030236), 300 nM GST-tagged protein, Alexa Fluor 488 anti-GST; buffer, salt, pH and temperature not stated; high values mean tight binding; most listed sequences are background and not binding sites; double strand, one strand shown

Sequence	binding signal [E-score]
AATATTTG	-0.0232
AGTGCTTG	0.0711
CAGTTAGA	-0.228
CCTGGCCA	-0.177
ACGCAGAG	-0.0791
ACAGCTAA	0.0383
ATCAATTA	-0.00412
CTTGTCTC	-0.158
GTCTCGAA	-0.0405
GTATACTA	0.13
GACGCAAA	-0.237
CAGGAAGG	-0.0838
AGACACAG	0.0576
CCTACGCC	0.0645
GGTCGCAC	-0.101
ACAAGAGT	0.029
AGTAAAAG	0.089
GCAGCTTA	-0.138
AAAGCTCG	-0.282
AACGAGAT	-0.266
ACATAACC	-0.151
TGTCCCAA	0.137
AAGCGATT	-0.16
AACCCCAG	0.154
CAGCCATA	-0.0267

Sequence	binding signal [E-score]
CTTCGGCA	-0.158
AACCGAAA	-0.118
AAACTCTC	0.0069
GCAGCGAC	0.0291
GCAATAAC	-0.0696
ATCGTTCG	-0.0971
CAAGGTAC	-0.0189
TAGATTCA	-0.201
GAGTACGC	0.055
ATGAAGGG	-0.114
CAGGGAGG	0.014
CAGACAAG	-0.0533
AACTGACG	-0.239
CCTGACCG	-0.0363
CGTCTCAG	-0.00792
ATCATTAC	-0.0678
GTGAATGA	-0.104
ACGGGGGC	0.144
CGAGTTAC	0.0849
ACATGTCC	-0.101
ACGAAAGG	0.0997
CAGATACC	0.218
ACCCGAAG	0.0858
ATGGCACG	-0.0447
CGCCTTTC	-0.193

Sequence	binding signal [E-score]
CCCGACTA	0.135
CGTCTTTC	-0.392
GACCATAA	-0.183
GGGTCTCA	0.162
CCAGTCTC	-0.152
ATTTGGGC	-0.235
ACTGATGG	-0.0804
GAGTAGGC	0.0572
AAATAGTG	0.108
CCCTCGTC	0.0131
TGCCCCCA	-0.282
CGGCGTAA	0.0171
CGTAGCCC	0.0124
GCGGGGTA	0.233
CAAACAGC	-0.165
GGTGGTCA	-0.101
CGTACTCC	0.221
AATCAAGA	-0.0217
CAGGATGG	-0.193
CAATACCG	0.000605
CACGAAAC	0.152
ACGTTGGC	-0.238
ATAACGGA	0.0421
TAACGGAA	-0.17
CAGTTACC	0.0535

Sequence	binding signal [E-score]
CGTGACAA	0.0289
CAAAAACA	0.042
ATCCGTAA	-0.161
ATCATAGC	0.0699
CTAGTTTC	-0.0634
AGTCCTTC	-0.0766
AACAGCCC	-0.215
AGGGAGCG	0.00641
CTGAAAAG	-0.0197
ACTGAAGA	-0.216
GGGGACTA	0.0135
AGGCATCC	-0.0733
GCGCTCCA	-0.117
CAGGGTGA	0.00169
ATCAGTGG	-0.00236
ACAAAATG	0.0689
ACTATAGC	0.0481
AGTGTCGA	0.408
ACCCTGTA	0.153
AACCCGAC	0.149
CCCTTGCC	-0.0706
AACACCCT	0.461
CTCTGCCC	-0.15
GTCTGCAA	-0.054
GACCTCAA	0.101

Sequence	binding signal [E-score]
TAACTAAA	0.0528
ACCTGATA	0.109
AAGGGAAT	-0.204
AAAGATGG	-0.132
CATACACA	0.205
ATGTGGAC	-0.0763
ACGGGCCG	0.129
CAATTTGG	-0.166
ATGCCGCG	-0.0437
CTCTGCTA	-0.264
CATCTCCC	-0.13
ACCCATAC	0.104
ACACTATG	0.328
AAGGAACA	0.0817
ATAAGATG	-0.168
CGCGCTAA	-0.09
CCCGGGAG	0.189
AATATGGG	-0.148
CATCACGC	-0.278
AGATCCCG	0.0946
CACCGTGG	0.333
CTTCTAGA	-0.197
CCACGTCC	-0.147
ACTAAAAA	-0.071
CAAATTCG	-0.104

Sequence	binding signal [E-score]
CAGCAAGC	-0.191
AGGGATGG	0.0847
CTTCATTC	-0.096
CCAACTTA	0.0473
GGCATAAC	-0.035
CACGATCA	0.125
CGCATTAC	0.204
CATCTCAG	-0.103
CAGAAGAA	-0.187
GATTGCGC	-0.249
CCCATCGA	-0.122
GCCTGAAC	-0.0897
GGCACTTA	-0.0352
GGTGGCGA	0.0268
AGCCTTAA	-0.152
CCTAAAAA	-0.188
GAATGCTA	-0.172
GATGGCAC	0.0604
GATGTAAA	-0.0112
GACAATCC	-0.0342
CCGTTAGC	-0.227
AGCAAACG	-0.261
CCTATGCG	-0.0382
AATCAGAC	-0.0743
GAGGAAAA	-0.266

Sequence	binding signal [E-score]
ACATACCA	-0.085
ACATCCCG	0.128
GTTAGTCA	-0.108
ACTCAGCA	0.0239
ACTTAAGC	-0.151
AGAGCCAA	-0.18
ATAGATGG	-0.0369
CTCCCGGC	0.152
CACAGGAC	0.0327
GCCCGTAC	-0.0763
GCAGTCGC	-0.197
CAAGAGTG	0.0757
ACACTAGA	0.318
CCCGCGGA	-0.0148
ATAACATC	0.126
ACACTGCC	0.429
AGGGCCAG	-0.215
ACCCCCAC	0.282
CATGGGAA	-0.00726
ATATCGTG	0.118
CAATTGAC	0.0182
AGGCCTAT	-0.0739
